The results in this text go back to PubChem BioAssay AID463173 (ICCB-Longwood Screening Facility, Harvard Medical School, 2010).

Screen size: about 52,000 compounds; about 1,700 (3.3%) were called active. Rule as the data show it: active = survival mostly below about 52% (no sharp cut-off); inactive = mostly above about 56%. Some of the results follow.

The assay relates to Wild type. Description: growth inhibition of S. aureus wild type versus tarO mutant, primary screen, teichoic acid synthesis inhibitors, RN4220, OD600 (AID 463173). Particulars: S. aureus RN4220 wild type/DeltatarO growth, OD600, 18 h, hits give low values, screened at 18.75 µg/mL (by protocol).
Regarding `Cc1ccc(C)c(-n2cc(-c3ccccc3)nc2SCC(=O)Nc2ccccc2)c1`, the survival is inactive: 72%.

For `Cc1nc2c(C(=O)NCc3ccccc3Cl)cnn2c(C)c1Cc1ccccc1`, the survival is inactive: 85%.

On to `COc1ccc(NC(=O)Cn2c(=O)n(Cc3ccccc3)c(=O)c3oc4ccccc4c32)cc1Cl`, for which the survival is inactive: 76%.

With `COc1cccc(-c2csc(-c3c(N)c(C(=O)c4ccccc4)n4ccccc34)n2)c1`, the survival is inactive: 72%.

Regarding `COc1cc(OC)cc(C(=O)c2coc3ccc(O)c(CN4CCOCC4)c23)c1`, the survival was inactive: 104%.

As to `O=C(CSc1nc2c([nH]c3ccccc32)c(=O)n1-c1ccc(Cl)cc1)N1CCCCCC1`, the survival is inactive: 88%.

Regarding `Cn1cc(S(=O)(=O)N2CCCCC2)cc1C(=O)N1CCN(c2ccccc2F)CC1`, the survival is inactive: 87%.

For the compound `CC(C)(CO)NC(=O)c1ccc(Cl)c(S(=O)(=O)N2CCCCC2)c1`, the survival was inactive: 114%.

With `CCOC(=O)c1ccccc1NC(=O)Cn1c(=O)n(CCCC(=O)NCc2ccc3c(c2)OCO3)c(=O)c2ccccc21`, the survival was inactive: 91%.

`OCC#Cc1cnc2ccccc2c1`: the survival was inactive: 104%.

`CN(C(=O)c1c2c(nc3ccccc13)C(=O)N(C1CCCCC1)C2)c1ccc(F)cc1`: the survival was active: -3%.

Regarding `COC(=O)c1c(SCC(=O)Nc2cccc(Cl)c2C)[nH]c2ccccc2c1=O`, the survival was inactive: 97%.

Take `Cc1ccc(S(=O)(=O)NCCc2csc3nc(-c4ccccc4F)nn23)cc1C`: the survival is inactive: 84%.

Consider `CCOC(=O)c1c(C)oc2ncnc(N3CCN(c4ccccc4)CC3)c12`, for which the survival is inactive: 68%.

As for `O=[N+]([O-])c1ccc(S(=O)(=O)N2CCn3cccc3C2c2ccccc2F)cc1` (centres undefined), the survival was inactive: 132%.

`CC(NC(=O)C1CCN(S(=O)(=O)c2ccc3c(c2)oc(=O)n3C)CC1)c1ccccc1` (centres undefined): the survival is inactive: 95%.

Consider `Cc1ccc(C)c(N2CCN(c3nc4ccc(Cl)cc4n4cnnc34)CC2)c1`, for which the survival was inactive: 86%.

`CC(C)(C)OC(=O)N1CCC(c2c(C(=O)N3CCC(c4ccccc4)C3)cnn2-c2ccc(Cl)cc2)CC1` (centres undefined): the survival was inactive: 73%.

As to `COc1cccc(-c2nc(SCc3ccc(C)cc3)n3[nH]c(=O)cc3n2)c1`, the survival was inactive: 129%.

Regarding `COc1ccccc1-c1nc(S(=O)(=O)c2ccccc2)c(N2CCC(C)CC2)o1`, the survival is active: -5%.

Take `Cc1ccccc1OCc1nnc(SCc2cc(=O)c3ccc(C)c(C)c3[nH]2)n1C`: the survival was inactive: 71%.

Regarding `CC1CCCCN1C(=O)Cn1cc(C#N)c2ccccc21` (centres undefined), the survival was inactive: 92%.

`O=S(=O)(c1ccccc1)c1cccc(S(=O)(=O)N2CCCC2)c1`: the survival is inactive: 103%.

Take `Cc1ccc(-c2cc3c(n2-c2ccc(F)cc2)CC(C)(C)CC3=O)cc1`: the survival is inactive: 91%.
